# Results: PubChem BioAssay AID1240 (Sanford-Burnham Center for Chemical Genomics, 2008)
# The campaign covered roughly 50,000 compounds. About 800 (1.6%) showed an effect of 50% or more. The list shows a part of the results.
# Biological target: Bcl-2-like protein 10 (Homo sapiens) (UniProt Q9HD36)
# Test: TR3 peptide-Bcl-B binding displacers, biochemical primary FP assay, phenotype converters (AID 1240);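 note: 0% = Bcl-B with tracer peptide and DMSO and 100% = tracer peptide lacking Bcl-B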
# Settings: GST-Bcl-B / FITC-TR3 peptide fluorescence polarization; stronger effect = higher value; compound at 3.75 mg/L
# UniProt Q9HD36, sequence (Q9HD36 whole entry, looked up): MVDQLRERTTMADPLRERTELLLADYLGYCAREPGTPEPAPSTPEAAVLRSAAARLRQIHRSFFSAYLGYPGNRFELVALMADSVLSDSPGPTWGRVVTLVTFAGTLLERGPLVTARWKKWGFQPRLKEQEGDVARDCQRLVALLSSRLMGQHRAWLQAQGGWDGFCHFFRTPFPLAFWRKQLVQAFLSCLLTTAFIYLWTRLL
row,SMILES,displacement
1,COc1ccc(C(=O)Nc2ccc(C(=O)O)cc2)cc1,5.1%
2,COC(=O)c1ccc(NC(=O)CC2Sc3ccccc3NC2=O)cc1 (stereo not given),3.1%
3,COc1cc(N2CCN(Cc3ccccc3)CC2)c([N+](=O)[O-])nc1[N+](=O)[O-],19.4%
4,CC(N/C=C1/CC(=O)NC1=O)c1ccccc1 (stereo not given),7.1%
5,COc1ccc(N2C(=O)NC(=O)/C(=C\c3cc(I)c(OC)c(OC)c3)C2=O)cc1,-5.6%
6,O=[N+]([O-])c1ccccc1S(=O)(=O)NCCc1ccccc1,-13.3%
7,O=C(Nc1ccc([N+](=O)[O-])cn1)c1cccnc1,12%
8,COC(=O)c1ccc(/C=C2\SC(N3CCOCC3)=NC2=O)cc1,-13.4%
9,Cc1ccc(/C=C/C(=O)Nc2ccc(F)c([N+](=O)[O-])c2)cc1,9.4%
10,COc1ccc(/C=N/Nc2nc(C(F)(F)F)c(-c3ccc(F)cc3)s2)cc1OC,2.7%
11,O=C(CCNc1n[nH]c(=O)[nH]c1=O)N/N=C/c1ccc(Cl)cc1,-12.4%
12,COc1ccc(NC(=O)c2c(NC(=O)C(Cl)(Cl)Cl)sc3c2CCC3)cc1,16.4%
13,COc1ccc(-c2cc(C(=O)Nc3ccc([N+](=O)[O-])cc3)c3ccccc3n2)cc1,14.9%
14,COc1ccc(C2CC(c3c(-c4ccccc4)c4cc(Br)ccc4[nH]c3=O)=NN2C(=O)CCC(=O)O)cc1 (stereo not given),13.8%
15,CCn1c2ccccc2c2cc(/C=C(\C#N)C(N)=O)ccc21,-7.4%
16,O=C(Cn1c(NCCO)nc2ccccc21)c1cccc2ccccc12,-12.2%
17,CSc1ccc(/C=N\NC(=O)C2COc3cc4ccccc4cc3O2)cc1 (stereo not given),-11.4%
18,COc1ccc(CSc2nc3ccccc3n2C)cc1F,-9.9%
19,O=C1C2C3C=CC(C3)C2C(=O)N1/N=C/c1cccc(I)c1 (stereo not given),10.3%
20,Cc1ccc(OCCCCn2ccnc2)cc1C,9%
21,O=c1[nH]c(Nc2nc3ccccc3o2)nc2ccccc12,-3.4%
22,CCOC(=O)c1c2c(n(-c3ccccc3)c1C)C=C(Br)C(=O)C2=O,7.3%
23,CNC(=O)OCc1ccc(-c2ccc(Cl)cc2)o1,-4.5%
24,COc1ccc(OC)c(NCC(O)Cn2c3ccccc3c3ccccc32)c1 (stereo not given),-2.3%

row,SMILES,displacement
1,C=CCn1c(=S)[nH]c2sc3c(c2c1=O)CCC(C(C)(C)C)C3 (stereo not given),-11.8%
2,O=C(Nc1ccc(N2CCOCC2)cc1)c1ccc(-c2ccccc2[N+](=O)[O-])o1,-0.4%
3,CCC(C)C(=O)N1c2cc(C)ccc2-c2c(ssc2=S)C1(C)C (stereo not given),-2.7%
4,CCOC(=O)c1c(C)n(CC(O)CNC(C)C)c2ccc(OC)cc12 (stereo not given),-7.6%
5,COC(=O)C(NC(=O)C12CC3CC(CC(C3)C1)C2)C(C)C (stereo not given),13%
6,COc1ccc(Cl)cc1NC(=O)c1ccncc1,1.1%
7,COc1cc(NC(=O)Cc2ccc(Cl)cc2)c(OC)cc1Cl,14.5%
8,O=C1N=c2ccccc2=C1c1sc(=S)n(-c2ccc(C(=O)O)cc2)c1O,2%
9,O=C(NC1=Nc2cccc3cccc1c23)c1cccc(C(F)(F)F)c1,62.1%
10,O=C(Nc1ccc(Cl)cc1)NC1CCCCCCC1,-7.2%
11,O=c1c(Cl)c(Cl)cnn1Cc1c(Cl)ccc(Cl)c1Cl,8.3%
12,O=C1N2CN(C(c3ccccc3)c3ccccc3)CN=C2SC1(CO)CO,3%
13,Cc1cccc(NC(=O)/C(=C/c2cccc([N+](=O)[O-])c2)NC(=O)c2cccs2)c1,-1.8%
14,CCc1cccc(C)c1NC(=O)CCC(=O)O,-6.6%
15,Cc1cc(/C=N\Nc2ccc([N+](=O)[O-])cn2)c(C)n1-c1ccccc1F,10.1%
16,O=C(NC(c1ccccc1)c1ccccc1)c1ccncc1,2%
17,COc1cccc(C2NC(=O)NC(C)=C2C(=O)OCCOC(C)C)c1 (stereo not given),3.3%
18,O=C(c1ccc(S(=O)(=O)N2CCCCC2)cc1)N1CCN(Cc2ccc3c(c2)OCO3)CC1,-7.9%
19,O=C(NCCC(c1ccccc1)c1ccccc1)C1CCCCC1,0.6%
20,Cc1cc(Cl)ccc1OC(C)C(=O)NCC1CCCO1 (stereo not given),1.6%
21,COCCNC(=O)COc1ccc(Cl)cc1Br,-9.3%
22,O=C(Nc1ccccc1O)c1ccc(Oc2ccc(C(=O)Nc3ccccc3O)cc2)cc1,-3%
23,CSc1ccc(/C=C2/SC(=O)N(CN3CCOCC3)C2=O)cc1,2.3%
24,Clc1ccc(-c2noc(CCc3ccccc3)n2)cc1,13.2%

row,SMILES,displacement
1,Cc1ccc(N(Cc2ccco2)S(=O)(=O)c2ccc([N+](=O)[O-])cc2)cc1,-4.5%
2,COc1cccc(C(=O)N2c3ccccc3C(N(C(=O)C(F)(F)F)c3ccccc3)CC2C)c1 (stereo not given),6.9%
3,O=C(Nc1sc2c(c1C(=O)Nc1ccccn1)CCCCC2)c1ccccc1F,-3%
4,CCOc1ccc(-c2cc(C(=O)N3CCN(Cc4ccccc4)CC3)c3ccccc3n2)cc1,2.8%
5,O=C1OC(c2ccc(Oc3ccccc3)cc2)=C/C1=C/c1ccco1,29.1%
6,O=C1C=CC(=NOC(=O)c2ccccc2Br)C=C1,11.3%
7,CCCCC/C(=N\NC(=O)c1cccnc1)c1ccccc1,16.4%
8,CCOC(=O)c1sc2nc(C)ccc2c1N,-7.9%
9,O=C1CC(Sc2ccccc2)C(=O)N1c1ccc(Cc2ccc(N3C(=O)CC(Sc4ccccc4)C3=O)cc2)cc1 (stereo not given),-0.3%
10,Cc1ccc(NC2CC(=O)N(c3cccc(C(F)(F)F)c3)C2=O)cc1 (stereo not given),-3.8%
11,COc1ccccc1CNC(=O)C/C(C)=N/NC(=O)C(=O)NC(C)C,-14.6%
12,O=C(Nc1nc(-c2ccccc2)cs1)c1ccncc1,-4.8%
13,O=C1NC(=O)N(c2cccc(Br)c2)C(=O)/C1=C/c1ccc(O)c(Cl)c1,10.7%
14,CCOC(=O)c1sc(NC(=O)Nc2cccc(Cl)c2)c(C(N)=O)c1C,-1.3%
15,CS(=O)(=O)N(CC(=O)O)c1cc(Cl)cc(Cl)c1,12.1%
16,C=CCn1c(CCCO)nc2ccccc21,3.1%
17,O=C1N=C(N2CCCCC2)CN1c1ccccc1,-6.7%
18,COc1cccc(NC(=O)c2sc3cc(C)ccc3c2Cl)c1,9%
19,CC(C)c1ccc(C(=O)Nc2cc(Cl)cc(Cl)c2)cc1,13.9%
20,O=C(CSc1nnnn1-c1ccccc1)NN1C(=O)c2ccccc2C1=O,-17.5%
21,CN(CCCC(=O)O)S(=O)(=O)c1ccc2c(c1)C(=O)c1cc(S(=O)(=O)N(C)CCCC(=O)O)ccc1-2,-4.1%
22,CCN1C(=O)/C(=C\c2ccc(-c3ccc(C(=O)OC)cc3)o2)SC1=S,12.9%
